Test results reported in the supplement of paper PMC11417369.
± gives the standard deviation of the averaged measurements. The list shows a part of the results.

The sequences below were run on PfAP2-G AP2 domain (GST-tagged) (assay: gcPBM binding intensity (ln(normalized median fluorescence intensity)); higher = stronger DNA binding).
Method in brief: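 GST-tagged P. falciparum DNA-binding domains produced in E. coli were incubated for 1 h on an Agilent 4 × 180k array of primer-extended double-stranded 36-bp intergenic genomic probes with negative controls. Binding intensity is the highest Masliner-normalised natural-log median intensity across replicate spots of either probe orientation, with bound protein detected by Alexa488 anti-GST antibody at 488 nm.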

Which “gcPBM binding intensity (ln)” value does the source give for “ATATGTATTTAATTCACACAAAAATATGTTCATGAA [CACACA_site5223]” here?
The value was 9.92 ± 0.014.

For “ATATTATTAATATATTGTACTTTTTTTTTTTTATTT [XGTACX_site496]”, which “gcPBM binding intensity (ln)” value is on record?
The value was 11.5 ± 0.91.

“CACATTATGTATCATACACACAAATAAATATATAAT [CACACA_site4505]” was tested. Which “gcPBM binding intensity (ln)” value did it give?
Its value is 10.4 ± 0.19.

How did the “gcPBM binding intensity (ln)” value turn out when “ATATATTAATAATAAATTAAAAGGAGTAACATTTTC [CACACA_negctrl_site320]” was run?
The value was 10.1 ± 0.11.

How did the “gcPBM binding intensity (ln)” value turn out when TGAAAATAATTATAGGTGCATAAACATACGGATCTT was run?
The value was 10.21 ± 0.021.

How did the “gcPBM binding intensity (ln)” value turn out when “TTTTTTTTGTATTTTTCACACACTCTCTATCTCTCT [CACACA_site8655]” was run?
Its value is 10 ± 0.14.

Which “gcPBM binding intensity (ln)” value does the source give for “TATAAAAATAATATTACACACATGTAAAATGCCCGT [CACACA_site7522]” here?
Its value is 9.96 ± 0.099.

With “AAGAAAATAAAGGATATGAAAAATAAAAAAAAGGAG [TGCATGCA_negctrl_site265]” as the sequence, how does the “gcPBM binding intensity (ln)” value read?
The value was 10.3 ± 0.27.

With “AGGTTAAAAATAAATACACACATTTTATGGGTGTAT [CACACA_site4702]” as the sequence, how does the “gcPBM binding intensity (ln)” value read?
Its value is 9.87 ± 0.028.

With “TTTTTTTTTTTCTTTGCACACAGATAACTTGAAATT [CACACA_site2184]” as the sequence, how does the “gcPBM binding intensity (ln)” value read?
Its value is 10.1 ± 0.25.

How did the “gcPBM binding intensity (ln)” value turn out when “AATTTAATTATGGTAACACACAATAAAAAAAAATCT [CACACA_site568]” was run?
The value was 10.4 ± 0.42.

Which “gcPBM binding intensity (ln)” value does the source give for “ATATTTTATTTTCCATGTACACAAAAAAAAAAAAAA [XGTACX_site8327]” here?
The value was 11.4 ± 0.96.

Which “gcPBM binding intensity (ln)” value does the source give for “TAATATATAAGAAACAAAAAAAAATAAAAATATATA [TGCATGCA_negctrl_site153]” here?
The value was 9.47 ± 0.39.

Which “gcPBM binding intensity (ln)” value does the source give for “TAAAATAATTCGTAACGTACATATGTAATATAATAT [XGTACX_site6126]” here?
Its value is 11.1 ± 0.62.

How did the “gcPBM binding intensity (ln)” value turn out when “CGCATACACGGACACACACACACATATATATATATA [CACACA_site4520]” was run?
The value was 11.3 ± 0.7.

How did the “gcPBM binding intensity (ln)” value turn out when “AAAAAAAAAAAACACACACACACACTAATATATAAA [CACACA_site8302]” was run?
The value was 10 ± 0.34.

How did the “gcPBM binding intensity (ln)” value turn out when “ATATTACAACGTAACGAATATTTCATAAATTCTTAA [CACACA_negctrl_site770]” was run?
Its value is 9.705 ± 0.078.

For “AGCTCTATATTTTACACATGCGATTTGGATATATAT [TGCATGCA_site105]”, which “gcPBM binding intensity (ln)” value is on record?
The value was 10.01 ± 0.035.

Which “gcPBM binding intensity (ln)” value does the source give for “TAAATATATATCATCACACACACATACATAAATATA [CACACA_site183]” here?
Its value is 10 ± 0.2.

Which “gcPBM binding intensity (ln)” value does the source give for “CCTTTATATTATAAAAGTACATAATATTTTATAAGT [XGTACX_site1629]” here?
The value was 11.5 ± 1.

How did the “gcPBM binding intensity (ln)” value turn out when “ATTTCTCAATCGTAATGTACAAAAAAAAGGAAAAAA [XGTACX_site1193]” was run?
Its value is 10.7 ± 0.53.

How did the “gcPBM binding intensity (ln)” value turn out when “TTATATAGATGGAATAGTACAGTATATATATATATA [XGTACX_site8755]” was run?
Its value is 11.3 ± 0.76.

How did the “gcPBM binding intensity (ln)” value turn out when “AAGGTTATATAAAAAAGTACGCATAAGATGTTGTTC [XGTACX_site807]” was run?
The value was 11.3 ± 0.78.

“ATTAGAAAAAAGATAGCACACACGGCCCAATATATA [CACACA_site2417]” was tested. Which “gcPBM binding intensity (ln)” value did it give?
Its value is 10.21 ± 0.092.

How did the “gcPBM binding intensity (ln)” value turn out when “TGAAATTTATAATAGTGTACAAAGAAAAAAAAAAAA [XGTACX_site4965]” was run?
The value was 11 ± 0.78.

For “TACTGTATTATAATTATGATTGACGAAATTAAAAAT [GTGCAC_negctrl_site358]”, which “gcPBM binding intensity (ln)” value is on record?
Its value is 10 ± 0.11.

With “ACGACATATGGATGATGTACTATCTTTATTATACAT [XGTACX_site6857]” as the sequence, how does the “gcPBM binding intensity (ln)” value read?
Its value is 11 ± 0.73.

Which “gcPBM binding intensity (ln)” value does the source give for “TAAATAATGTAAAAAACATCATCAAAATGTTAATTA [CACACA_negctrl_site1768]” here?
The value was 9.415 ± 0.078.

Which “gcPBM binding intensity (ln)” value does the source give for “TCTCAAAAAAAAAAAAAAAAAAAAAAATTAAAAAAT [CACACA_negctrl_site1120]” here?
The value was 9.4 ± 0.014.

How did the “gcPBM binding intensity (ln)” value turn out when “TTTATGGATGTGTATGCATGCCTAAATAAATATATG [TGCATGCA_site916]” was run?
Its value is 10.04 ± 0.057.

With “GATGAGGACAAACACACACACATAAGTTGATACATA [CACACA_site3424]” as the sequence, how does the “gcPBM binding intensity (ln)” value read?
Its value is 11 ± 0.83.

“AGATAGATACATACACGTACATATATATATACACAT [XGTACX_site4755]” was tested. Which “gcPBM binding intensity (ln)” value did it give?
Its value is 11.4 ± 0.86.

Which “gcPBM binding intensity (ln)” value does the source give for “CAATATAAAATAAAATGTACTTGTAGTAAAGGGATA [XGTACX_site1452]” here?
The value was 11.1 ± 0.64.

Which “gcPBM binding intensity (ln)” value does the source give for “ATAAAGGTTTTCCAAGCATGCCACATAGTGACATAC [TGCATGCA_site193]” here?
Its value is 9.985 ± 0.064.

How did the “gcPBM binding intensity (ln)” value turn out when “TATTACTTGATATATACACACATATAACATAAATGC [CACACA_site7783]” was run?
The value was 10.1 ± 0.25.

Which “gcPBM binding intensity (ln)” value does the source give for “TATAAATATATATATACACACACATACACAAAAAAA [CACACA_site9191]” here?
Its value is 10.3 ± 0.3.

Which “gcPBM binding intensity (ln)” value does the source give for “ATATATTATATGTACACACACATATAAGGGATTATA [CACACA_site5]” here?
The value was 11.4 ± 0.9.

For “TAGAATAAACCAAGAAGTACTGTTTAATGAAAAGTA [XGTACX_site5712]”, which “gcPBM binding intensity (ln)” value is on record?
The value was 11.1 ± 0.71.

“ATACCTAAAAAATATACACACATATTTATAAATATA [CACACA_site7260]” was tested. Which “gcPBM binding intensity (ln)” value did it give?
Its value is 9.98 ± 0.042.

How did the “gcPBM binding intensity (ln)” value turn out when “GTCATATTATTCTTTTCACACACGCGTTAATAATAA [CACACA_site9302]” was run?
Its value is 10.4 ± 0.24.

With “AAAATAACATAAAAGAGTACTAAACCAAGATCAAAT [XGTACX_site7973]” as the sequence, how does the “gcPBM binding intensity (ln)” value read?
The value was 11 ± 0.48.

How did the “gcPBM binding intensity (ln)” value turn out when “TATATTTATATTCTTACATTTTTTATGTTTTTTTTT [CACACA_negctrl_site1017]” was run?
Its value is 9.55 ± 0.27.

“TAAACAGACATATAAACACACATATAAACCGACATA [CACACA_site2478]” was tested. Which “gcPBM binding intensity (ln)” value did it give?
The value was 10 ± 0.12.

For “TATTATAATATGTAGCGTACATTTTTTCTTTCTTTT [XGTACX_site7831]”, which “gcPBM binding intensity (ln)” value is on record?
The value was 11.1 ± 0.61.

Which “gcPBM binding intensity (ln)” value does the source give for “ATAAATCAAATGCACACACACAAAAAAAAAAAAAAA [CACACA_site6221]” here?
The value was 9.96 ± 0.46.

“TACAAAAATATATAAACACACAAATATAATATATAT [CACACA_site2942]” was tested. Which “gcPBM binding intensity (ln)” value did it give?
The value was 9.735 ± 0.078.

How did the “gcPBM binding intensity (ln)” value turn out when “TAATAAATGACAAATTAACACACATATATTATATAT [CACACA_site9294]” was run?
Its value is 9.835 ± 0.078.

For “CGCTCTCTTTAATATTGTACATATATATTATATATA [XGTACX_site7017]”, which “gcPBM binding intensity (ln)” value is on record?
The value was 11.1 ± 0.61.

For “TTTTTTTTTTTTTTTTGTACATAATAAATGTTCTTA [XGTACX_site6754]”, which “gcPBM binding intensity (ln)” value is on record?
Its value is 10.8 ± 0.88.

Which “gcPBM binding intensity (ln)” value does the source give for “TGTATCTATAATAAAACACACATTTTTAATGTGCTC [CACACA_site6788]” here?
The value was 9.71 ± 0.071.

Which “gcPBM binding intensity (ln)” value does the source give for “TATATATAATATTTTTCACACACCATTTCCTTAAAC [CACACA_site1341]” here?
Its value is 10.2 ± 0.16.

For “TGTGCGGAAATAAGTGCACACATAGATATATGTATT [CACACA_site9227]”, which “gcPBM binding intensity (ln)” value is on record?
The value was 10.4 ± 0.29.

“TATTTTGTATTCATTTGTCACATATAATAGATAGGA [TGCATGCA_negctrl_site9]” was tested. Which “gcPBM binding intensity (ln)” value did it give?
Its value is 10.1 ± 0.18.

How did the “gcPBM binding intensity (ln)” value turn out when “AATATATGTATATCCACACACATATATATATATATA [CACACA_site1633]” was run?
The value was 10.1 ± 0.21.

For “ATAGATATAACATATGCATGTAAAATATAACCACTC [TGCATGCA_site60]”, which “gcPBM binding intensity (ln)” value is on record?
Its value is 10.3 ± 0.29.

Which “gcPBM binding intensity (ln)” value does the source give for “TTATACGAAGTACGTACACACACTTATATGTTACTA [CACACA_site4019]” here?
The value was 11.6 ± 0.94.
